Measurements reported in ChEMBL document CHEMBL1140266, “(2R)-2-methylchromane-2-carboxylic acids: discovery of selective PPARalpha agonists as hypolipidemic agents” (Bioorg Med Chem Lett, 2005).

Experiments:
[1] = target: T1, Peroxisome proliferator-activated receptor gamma (Homo sapiens, UniProt P37231)
T1 sequence (P37231 whole entry): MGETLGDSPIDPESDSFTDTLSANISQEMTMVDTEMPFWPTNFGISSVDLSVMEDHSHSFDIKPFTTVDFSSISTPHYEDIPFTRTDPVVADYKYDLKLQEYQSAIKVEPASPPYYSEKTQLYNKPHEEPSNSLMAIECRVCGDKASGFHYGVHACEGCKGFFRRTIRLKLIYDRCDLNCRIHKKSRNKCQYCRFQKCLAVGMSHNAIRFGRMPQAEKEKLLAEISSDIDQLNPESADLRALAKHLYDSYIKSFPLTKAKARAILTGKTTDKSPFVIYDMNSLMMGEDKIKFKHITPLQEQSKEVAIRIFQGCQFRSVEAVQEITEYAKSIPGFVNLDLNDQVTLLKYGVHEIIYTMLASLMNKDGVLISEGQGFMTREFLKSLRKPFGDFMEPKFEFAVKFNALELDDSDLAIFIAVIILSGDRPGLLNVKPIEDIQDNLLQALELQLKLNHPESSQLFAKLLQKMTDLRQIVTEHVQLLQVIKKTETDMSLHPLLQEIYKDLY

[2] = target: T1, Peroxisome proliferator-activated receptor gamma; remark: listed apart in the source
[3] = target: T1, Peroxisome proliferator-activated receptor gamma; remark: listed apart in the source

`CC[C@]1(C(=O)O)CCc2ccc(OCCCOc3ccc(C4CCCCC4)cc3Cl)cc2O1` was tested, and the IC50 [1] was 1400 nM and the EC50 [2] was 400 nM.
`CC[C@]1(C(=O)O)CCc2ccc(OCCCOc3ccc(C4CCC5(CC4)CC5)cc3Cl)cc2O1` showed an IC50 [1] of 3700 nM and an EC50 [2] of 500 nM.
In the case of `CC(C)c1ccc(OCCCOc2ccc3c(c2)O[C@@](C)(C(=O)O)CC3)c(Cl)c1`, the IC50 [1] is reported as 5000 nM and the EC50 [2] is reported as 3000 nM.
For `C[C@]1(C(=O)O)CCc2ccc(OCCCOc3ccc(OCC4CC4)cc3Cl)cc2O1`, the IC50 [1] was > 15000 nM.
With `CC(C)Oc1ccc(OCCCOc2ccc3c(c2)O[C@@](C)(C(=O)O)CC3)c(Cl)c1` the IC50 [1] was > 15000 nM.
With `CC[C@]1(C(=O)O)CCc2ccc(OCCCOc3ccc(C4CCC(C)(C)CC4)cc3Cl)cc2O1` the IC50 [1] was 5700 nM and the EC50 [2] was 1400 nM.
With `C[C@]1(C(=O)O)CCc2ccc(OCCCOc3ccc(C4CCC5(CC4)CC5)cc3Cl)cc2O1` the IC50 [1] was 4500 nM and the EC50 [2] was 1000 nM.
`CC[C@]1(C(=O)O)CCc2ccc(OCCCOc3ccc(OCC(F)(F)F)cc3Cl)cc2O1` showed an IC50 [1] of 990 nM and an EC50 [2] of 400 nM.
`C[C@]1(C(=O)O)CCc2ccc(OCCCOc3ccc(C4CCCCC4)cc3Cl)cc2O1` was tested, and the IC50 [1] was 5800 nM and the EC50 [2] was 700 nM.
For `CC[C@]1(C(=O)O)CCc2ccc(OCCCOc3ccc(CC(C)C)cc3Cl)cc2O1`, the IC50 [1] was 1800 nM and the EC50 [2] was 600 nM.
In the case of `CC[C@]1(C(=O)O)CCc2ccc(OCCCOc3ccc(C4CCOCC4)cc3Cl)cc2O1`, the IC50 [1] is reported as > 15000 nM and the EC50 [3] is reported as 15600 nM (not active).
With `C[C@]1(C(=O)O)CCc2ccc(OCCCOc3ccc(F)cc3Cl)cc2O1` the IC50 [1] was > 15000 nM.
With `C[C@@]1(C(=O)O)CCc2ccc(OCCCOc3ccc(OCC(F)(F)F)cc3Cl)cc2O1` the IC50 [1] was 2700 nM.
`CC1(C)CCC(c2ccc(OCCCOc3ccc4c(c3)O[C@@](C)(C(=O)O)CC4)c(Cl)c2)CC1` was tested, and the IC50 [1] was 6400 nM and the EC50 [2] was 1000 nM.
In the case of `C[C@]1(C(=O)O)CCc2ccc(OCCCOc3ccc(OCC4CCC4)cc3Cl)cc2O1`, the IC50 [1] is reported as 2000 nM and the EC50 [2] is reported as 700 nM.
In the case of `C[C@]1(C(=O)O)CCc2ccc(OCCCOc3ccc(OCC(F)(F)F)cc3Cl)cc2O1`, the IC50 [1] is reported as 6000 nM and the EC50 [2] is reported as 3000 nM.
`COc1ccc(OCCCOc2ccc3c(c2)O[C@@](C)(C(=O)O)CC3)c(Cl)c1` was tested, and the IC50 [1] was > 15000 nM.
For `C[C@]1(C(=O)O)CCc2ccc(OCCCOc3ccc(OC(F)(F)F)cc3Cl)cc2O1`, the IC50 [1] was > 15000 nM.
`CC[C@]1(C(=O)O)CCc2ccc(OCCCOc3ccc(C(C)C)cc3Cl)cc2O1` was tested, and the IC50 [1] was 2900 nM and the EC50 [2] was 1200 nM.
`CCOc1ccc(OCCCOc2ccc3c(c2)O[C@@](C)(C(=O)O)CC3)c(Cl)c1` was tested, and the IC50 [1] was > 15000 nM.
Compound `CC[C@]1(C(=O)O)CCc2ccc(OCCCOc3ccc(F)cc3Cl)cc2O1` has an IC50 [1] of 4300 nM and an EC50 [2] of 3000 nM.
With `CC(C)(C)c1ccc(OCCCOc2ccc3c(c2)O[C@@](C)(C(=O)O)CC3)c(Cl)c1` the IC50 [1] was > 15000 nM.
With `CC[C@]1(C(=O)O)CCc2ccc(OCCCOc3ccc(C(C)(C)C)cc3Cl)cc2O1` the IC50 [1] was 2800 nM and the EC50 [2] was 1000 nM.
